# In PubChem BioAssay AID485364 (National Center for Advancing Translational Sciences (NCATS), 2010):
# The whole screen tested about 360,000 compounds, of which about 11,000 (3.1%) were called active. This list was built around the results that the source calls inconclusive (neither active nor inactive); the mix of calls is not that of the screen. The call rests on the fitted dose curve; in most records, active means well fitted inhibition curve with a large enough effect; inconclusive means small, poorly fitted or top-dose-only effect; inactive means no such curve, though single readings can be large or run the other way. No potency is given beside an inconclusive call; the fits are too rough.
# Target: Schistosoma mansoni thioredoxin glutathione reductase (TGR) (UniProt Q962Y6)
# Assay: qHTS Assay for the Inhibitors of Schistosoma Mansoni Peroxiredoxins; further: nearly all actives have a fitted effect of over 60% in size
# Conditions: purified TGR, DTNB reduction, TNB absorbance 405 nm; activity change, negative = inhibition: at 114 µM (top of the series) unless noted
# Method in brief: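 First, TGR (20 nM dispensed) and NADPH were mixed with compound. Second, a 15 min room-temperature incubation followed. Third, further NADPH and then DTNB were added to start the reaction. Finally, TNB absorbance was monitored kinetically.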
# On the % scale 0 is the no-effect control and ±100 the full control effect; potency means the concentration at half of the fitted maximal effect; tags describe the fitted curve by direction and shape.
SMILES,Potency,"activity change, negative = inhibition"
COc1cccc(C2=C(C(C)=O)Sc3nncn3N2C(C)=O)c1,"inconclusive [inhibitor, partial curve]",–
Cc1cccc(-c2nc3c(c(SCC(=O)N4CCOCC4)n2)Cc2c(CO)cnc(C)c2O3)c1,active: 22.4 µM,–
CCOC(=O)C1=C(O)/C(=C\c2cc(C)n(-c3ccc(F)cc3)c2C)N=C1C,active: 14.1 µM,–
O=S(=O)(NCc1csc(-c2ccccc2)n1)c1cccc(F)c1,"inconclusive [inhibitor, single point]",–
O=C1CCCC2=C1C(c1ccc(Cl)cc1)N1C(=O)CCSC1=N2 (stereo not drawn),"inconclusive [inhibitor, single point]",–
CCOC(=O)[C@]1(C#N)[C@@H]2C=CC(C(N)=O)=CN2[C@@H](C(N)=O)[C@@H]1c1ccc(F)cc1,"inconclusive [inhibitor, partial curve]",–
Cc1nc(C(C)NC(=O)c2cc(COc3ccc(F)c(F)c3)on2)cs1 (stereo not drawn),–,inactive: -10.8%
Cc1ccc(NC(=O)/C=C\C(=O)NCC(=O)O)cc1C,active: 1.78 µM,–
COc1cccc(NC(=S)Nc2ccc(F)cc2)c1,"inconclusive [inhibitor, partial curve]",–
Cc1ccc2nc(-c3ccc(O)cc3)oc2c1,–,inactive: 19%
Cc1ccc(S(=O)(=O)N(C)C)cc1NC(=O)COC(=O)c1sc2cc(Cl)ccc2c1Cl,"inconclusive [inhibitor, full curve]",–
Oc1ccc(CNc2ccc(F)cc2)c2cccnc12,"inconclusive [inhibitor, full curve]",–
CCC(c1nnnn1CC1CCCO1)N(CCN1CCOCC1)Cc1cc2cc(C)ccc2[nH]c1=O (stereo not drawn),"inconclusive [inhibitor, partial curve]",–
CC(=O)N1CCOc2cc(S(=O)(=O)NC(C)c3ccccc3)c(Cl)cc21 (stereo not drawn),"inconclusive [inhibitor, partial curve]",–
Cn1c(=O)[nH]c(=O)c2c1nc(SCCO)n2CCCc1ccccc1,"inconclusive [inhibitor, partial curve]",–
O=C(NC12CC3CC(CC(C3)C1)C2)c1ccc(-c2ccc(Br)cc2)o1,"inconclusive [inhibitor, partial curve]",–
CC(C)(C)N=C1C([N+](=O)[O-])=CC=C2C1=NC1(CCCCC1)N2O,"inconclusive [inhibitor, partial curve, poor fit]",–
COC(=O)c1ccccc1NC(=O)C1=CC(c2ccc(C)cc2)=NS(=O)(=O)N1C,–,inactive: -0.863%
O=C(Cn1cc([N+](=O)[O-])ccc1=O)NCC1COc2ccccc2O1 (stereo not drawn),"inconclusive [inhibitor, partial curve]",–
CCC(c1nnnn1Cc1ccccc1)N1CCN(C(=O)c2ccco2)CC1 (stereo not drawn),"inconclusive [inhibitor, partial curve]",–
O=C(c1ccoc1)N1CCC2(CC1)Oc1ccc(Cl)cc1C(=O)C21CC(c2ccc(Cl)cc2)=NO1 (stereo not drawn),"inconclusive [inhibitor, partial curve]",–
COc1ccccc1/C=C/c1nc(S(=O)(=O)c2ccccc2)c(N(C)C)o1,active: 10 µM,–

SMILES,Potency,"activity change, negative = inhibition"
O=C(/C=C/c1ccccn1)c1cc(Br)ccc1O,"inconclusive [inhibitor, full curve]",–
C=CCc1cccc(C2Nc3ccccc3C(=O)N2O)c1O (stereo not drawn),"inconclusive [inhibitor, partial curve, poor fit]",–
CN(C(=O)CC1C(=O)NCCN1Cc1cccc(C(F)(F)F)c1)C1CCOCC1 (stereo not drawn),"inconclusive [inhibitor, partial curve]",–
COC(=O)[C@@H](NC(=O)NC(C)CCc1ccccc1)C(C)C (stereo partly drawn),"inconclusive [inhibitor, single point]",–
COc1cc(O)oc1C=Nc1ccc(Cl)cc1Cl,active: 79.4 µM,–
COc1cccc(CN2CCN(C3CCN(c4ccccc4C)CC3)CC2CCO)c1 (stereo not drawn),"inconclusive [inhibitor, partial curve]",–
O=C(CSc1nnc(-c2cccnc2)o1)c1cc2ccccc2oc1=O,"inconclusive [inhibitor, full curve, poor fit]",–
O=c1[nH]c2cc3c(cc2cc1CN(Cc1nnnn1C1CCCC1)C1CCCC1)OCCO3,active: 50.1 µM,–
O=c1oc2ccccc2nc1/C=C(\O)c1ccc(Br)cc1,"inconclusive [inhibitor, partial curve]",–
Cc1nc2ccccn2c1C(=O)N/N=C/c1ccc([N+](=O)[O-])o1,active: 14.1 µM,–
CCSc1cc(C2C(C#N)=C(N)OC(C)=C2C(=O)OC)c(C)o1 (stereo not drawn),active: 25.1 µM,–
COc1cc(OC)c(C2Nc3cccc4cccc(c34)N2)c(OC)c1,"inconclusive [inhibitor, full curve]",–
CCOC(=O)c1c(C)[nH]c(C)c1S(=O)(=O)N1CCCC(C(=O)NCc2cccc(OC)c2)C1 (stereo not drawn),–,inactive: 5.08%
Cc1cc(N(CCO)CCO)nc(-n2nc(C)cc2C)n1,"inconclusive [inhibitor, single point]",–
CCc1ccc(CCC(=O)Nc2ccc(C(=O)O)cc2)o1,"inconclusive [inhibitor, full curve]",–
CC(=O)c1cccc(CN2CCCC(C(=O)Nc3ccc(-c4ccco4)cc3)C2)c1 (stereo not drawn),"inconclusive [inhibitor, partial curve]",–
CCOC(=O)C(C#N)=C1CCN(Cc2ccccc2)CC1,"inconclusive [inhibitor, full curve]",–
COc1cccc(CNC(=O)c2ccc(CS(=O)(=O)Cc3ccccc3C)o2)c1,"inconclusive [inhibitor, partial curve, poor fit]",–
CSCCC(NC(=O)c1cc(CC(C)C)oc1C)C(=O)O (stereo not drawn),"inconclusive [inhibitor, partial curve]",–
CCC1=C2CC[C@H]3C(=O)N(CC)C(=O)[C@H]3[C@H]2[C@@]2(Cc3ccccc3)C(=NCCOC)OC(=O)N2C1=O,–,inactive: 5.48%
Cc1occc1C(=O)N/N=C/C(Br)=C/c1ccccc1,"inconclusive [inhibitor, full curve]",–
